Source: the supplement of paper PMC7826260
This is one part of the list. Viral Rep nickase domains cut single-stranded DNA in vitro at 3 µM enzyme and 37 °C for 1 h; the strands have 90 letters, of which the middle is given. Values are log2 of uncut reads against the no-enzyme pool; uncut sequences lie near 0, cut ones below; no hit call is given. Because reads are shares of a total, they shift together; uncut strands gain when others are lost, and binding without cutting may add a little.

What was measured:
Assay in all cases: uncleaved DNA left, log2 of reads against the no-enzyme library (log2 ratio); higher = less cleavage (more negative = more Rep cleavage of the k-mer); sequences stand for … in CTCGTCCG…ACCGGAGA
[1] = system: T1, Rep nickase domain of Muscovy duck circovirus
T1 sequence (Rep 1-111, printed without the tag): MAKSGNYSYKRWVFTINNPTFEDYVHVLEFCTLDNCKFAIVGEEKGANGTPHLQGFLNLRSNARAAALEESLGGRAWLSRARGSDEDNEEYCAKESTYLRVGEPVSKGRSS
Method: (§1)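 A pool of 90-nt single-stranded DNAs with seven random bases just before the constant AC of the nick site (name = the seven bases) was cut by 3 µM recombinant His6-SUMO-tagged Rep nickase domain (300 nM DNA, 50 mM HEPES pH 8.0, 50 mM NaCl, 1 mM MnCl2, 1 h, 37 °C, three replicates). Uncut DNA was amplified and sequenced.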

[2] = system: T2, Rep nickase domain of banana bunchy top virus
T2 sequence (Rep 1-94, printed without the tag): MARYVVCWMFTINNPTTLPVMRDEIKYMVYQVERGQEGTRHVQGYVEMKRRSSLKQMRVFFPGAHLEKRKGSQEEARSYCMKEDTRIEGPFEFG
Method: as §1

[3] = system: T3, Rep nickase domain of cabbage leaf curl virus
T3 sequence (Rep 1-116, printed without the tag): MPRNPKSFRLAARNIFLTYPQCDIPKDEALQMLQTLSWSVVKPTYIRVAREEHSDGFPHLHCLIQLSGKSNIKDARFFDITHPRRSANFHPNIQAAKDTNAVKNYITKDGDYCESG
Method: as §1

[4] = system: T4, Rep nickase domain of chickpea chlorotic dwarf virus
T4 sequence (Rep 1-124, printed without the tag): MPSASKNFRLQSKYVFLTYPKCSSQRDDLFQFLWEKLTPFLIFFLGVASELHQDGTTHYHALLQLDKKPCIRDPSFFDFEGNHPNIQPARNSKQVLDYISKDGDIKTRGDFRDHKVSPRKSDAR
Method: as §1

[5] = system: T5, Rep nickase domain of faba bean necrotic yellows virus
T5 sequence (Rep 1-98, printed without the tag): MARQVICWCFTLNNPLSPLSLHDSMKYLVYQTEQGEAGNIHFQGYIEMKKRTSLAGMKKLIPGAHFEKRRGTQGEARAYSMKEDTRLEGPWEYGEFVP
Method: as §1

[6] = system: T6, Rep nickase domain of maize striate mosaic virus
T6 sequence (Rep 1-117, printed without the tag): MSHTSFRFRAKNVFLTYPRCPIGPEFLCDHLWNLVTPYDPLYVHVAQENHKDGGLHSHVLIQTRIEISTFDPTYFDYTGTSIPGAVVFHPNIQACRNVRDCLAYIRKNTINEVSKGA
Method: as §1

[7] = system: T7, Rep nickase domain of porcine circovirus 2
T7 sequence (Rep 2-116, printed without the tag): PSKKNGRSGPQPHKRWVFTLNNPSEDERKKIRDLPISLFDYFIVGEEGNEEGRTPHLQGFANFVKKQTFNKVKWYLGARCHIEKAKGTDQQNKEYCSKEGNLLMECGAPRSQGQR
Method: as §1

[8] = system: T8, Rep nickase domain of tomato golden mosaic virus
T8 sequence (Rep 1-124, printed without the tag): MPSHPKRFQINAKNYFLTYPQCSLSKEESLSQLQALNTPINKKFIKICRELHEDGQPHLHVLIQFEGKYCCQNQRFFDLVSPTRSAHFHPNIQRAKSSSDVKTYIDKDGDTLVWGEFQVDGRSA
Method: as §1

[9] = system: T9, Rep nickase domain of tomato yellow leaf curl virus
T9 sequence (Rep 1-136, printed without the tag): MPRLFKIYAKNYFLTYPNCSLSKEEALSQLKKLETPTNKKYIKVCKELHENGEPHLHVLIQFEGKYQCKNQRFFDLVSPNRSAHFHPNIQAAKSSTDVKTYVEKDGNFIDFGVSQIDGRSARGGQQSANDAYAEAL
Method: as §1

[10] = system: T10, Rep nickase domain of wheat dwarf virus
T10 sequence (Rep 1-137, printed without the tag): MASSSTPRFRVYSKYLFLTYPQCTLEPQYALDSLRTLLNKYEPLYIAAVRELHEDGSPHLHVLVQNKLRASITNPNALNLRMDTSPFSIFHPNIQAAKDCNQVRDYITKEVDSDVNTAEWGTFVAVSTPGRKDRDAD
Method: as §1

Sequence	uncleaved DNA left (log2) [1]	uncleaved DNA left (log2) [2]	uncleaved DNA left (log2) [3]	uncleaved DNA left (log2) [4]	uncleaved DNA left (log2) [5]	uncleaved DNA left (log2) [6]	uncleaved DNA left (log2) [7]	uncleaved DNA left (log2) [8]	uncleaved DNA left (log2) [9]	uncleaved DNA left (log2) [10]
TAGATGC	0.034	-0.088	-0.43	-0.554	0.0518	-1.22	0.0338	0.0549	-0.0871	0.00519
GCTACTT	0.0225	0.0301	0.152	-0.986	0.0226	0.705	-0.149	-0.0579	-0.123	0.0214
AAGAGGC	0.0404	0.0583	0.133	0.173	-0.0664	-0.569	0.164	0.0272	-0.0699	0.0763
CTAGGAA	0.0461	0.0853	0.394	1.36	0.0596	1.38	0.116	0.137	-0.0245	0.113
GGTCGTT	0.00857	0.0187	0.664	1.36	-0.0241	1.86	0.0255	-0.12	0.0124	0.00566
ATCGTAC	0.0669	-0.125	-0.156	-0.595	-0.0462	-0.772	0.0367	-0.0206	0.0766	-0.0521
TCGGTAC	-0.0851	-0.0873	0.263	0.0897	-0.081	0.365	0.0159	-0.079	-0.106	-0.0278
TCTCAGC	0.0499	-0.0139	-0.132	-0.593	0.0618	-0.827	0.239	0.0373	0.0673	-0.0376
CTATTTC	-0.0361	-0.153	-0.189	-0.401	-0.0441	-0.932	-0.0343	-0.092	-0.0475	-0.118
CGAACGC	0.0833	-0.011	0.028	0.0206	0.0406	-0.214	0.0751	0.00865	0.0207	0.0634
GATCCAT	0.0649	0.0398	0.405	0.69	-0.0194	1.3	0.0817	-0.0324	0.141	0.261
GCTGTGT	-0.0987	-0.111	-0.166	-0.165	-0.11	-0.522	-0.0978	-0.0649	0.00562	-0.133
CTGAGGC	-0.0602	-0.0812	-0.0441	0.0921	-0.16	-0.7	0.0241	-0.153	0.0126	0.0465
AGTGCTC	0.00344	-0.0217	0.0451	-0.103	-0.0554	0.321	-0.115	-0.093	-0.0844	0.00593
GTGCGGG	-0.0547	-0.0152	-0.069	0.141	-0.0948	-0.206	0.0145	-0.111	0.0358	-0.154
